“And” between values parts separate entries of the source, which are not always exact repeats. Equal values may be shown once. Inconclusive means that the source gave no clear call. Such entries were picked first, then a sample of the others. For some of these results: Potencies beside an inconclusive call are fits to weak or partial responses and may not hold up. The source made the active and inactive calls. Unless noted, calls come from the whole dose curve; as a rule, active = well fitted curve in the direction sought with a large enough effect; inconclusive = small, poorly fitted or top-dose-only effect, or another doubt; inactive = no such curve, though single readings can be large; an effect the other way counts as inactive or inconclusive.
Experiments:
[1] = qHTS of pediatric cancer cell lines to identify multiple opportunities for drug repurposing: Primary screen for A673 cells (AID 1347092); conditions: A673 Ewing sarcoma viability, CellTiter-Glo ATP luminescence, 48 h; activity change, negative = cytotoxic: at 46 µM (top of the series); note: nearly all actives have a fitted effect of over 45% in size
Method in brief: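 A673 cells (500-1,000 cells/well) were treated 48 hours at 37 degrees C with compounds at 11-point (0.78 nM to 46 µM) or 8-point (0.59 nM to 46 µM) dilutions. Viability read by CellTiter-Glo luminescence; concentration-response curves fitted.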

[2] = qHTS of pediatric cancer cell lines to identify multiple opportunities for drug repurposing: Primary screen for RD cells (AID 1347104); note: nearly all actives have a fitted effect of over 55% in size;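 for activity change, negative = cytotoxic: plate controls were DMSO for no effect and bortezomib for full effect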
Method in brief: (§1)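 Luminescence from CellTiter-Glo served as readout of metabolically active cells after 48 h compound exposure. Titrations: MIPE 11-point, from 0.78 nM; NPC 8-point, from 0.59 nM (final). Concentration-response curves came straight from the primary screen.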

[3] = qHTS of pediatric cancer cell lines to identify multiple opportunities for drug repurposing: Primary screen for Rh30 cells (AID 1347107); note: nearly all actives have a fitted effect of over 75% in size; for activity change, negative = cytotoxic: % is set by controls: 0 for no effect and ±100 for the full control effect
Method in brief: (§2)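 Cells (500-1,000/well) rested 5 h, then received compounds for 48 h; metabolically active cells were measured by CellTiter-Glo luminescence. Final concentrations spanned up to 46 µM (MIPE, 11-point) or 0.59 nM-46 µM (NPC, 8-point) in primary screens, 11-point in follow-ups.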

[4] = qHTS of pediatric cancer cell lines to identify multiple opportunities for drug repurposing: Primary screen for Rh41 cells (AID 1347108); note: nearly all actives have a fitted effect of over 70% in size
Method in brief: as §1

[5] = A High-Content qHTS Against Drug Library for the Identification of Small Molecules that Inhibit DYT1 Early Onset Primary Dystonia-Associated Cell Pathology (AID 1645839; calls by dose curve)
Method in brief: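 High-content imaging quantified EGFP-TorsinA mislocalization in HEK293-derived cells inducibly expressing DYT1 mutant torsinA, after 48 h exposure to compound given together with tetracycline induction. Cell count served as a toxicity channel alongside %pathology.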

[6] = molecular target: Phospholipid hydroperoxide glutathione peroxidase GPX4 (Homo sapiens) (UniProt P36969); assay: Primary qHTS Assay for Inhibitors of Recombinant Selenoprotein Glutathione Peroxidase 4 (GPX4) (AID 1845192); conditions: activity change, negative = inhibition: at 50 µM (top of the series) unless noted; note: nearly all actives have a fitted effect of over 65% in size; for activity change, negative = inhibition: % is set by controls: 0 for no effect and ±100 for the full control effect
UniProt P36969, sequence (P36969 whole entry, looked up): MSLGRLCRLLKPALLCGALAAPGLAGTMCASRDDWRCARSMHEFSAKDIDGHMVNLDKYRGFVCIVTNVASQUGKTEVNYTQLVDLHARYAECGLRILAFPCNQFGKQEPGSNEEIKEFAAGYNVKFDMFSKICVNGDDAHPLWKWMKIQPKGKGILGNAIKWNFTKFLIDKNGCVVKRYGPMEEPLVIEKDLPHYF
Method in brief: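 NADPH consumption followed by fluorescence at 340/450 nm, t=0 and after 15 min at room temperature. Reaction started with cumene hydroperoxide (0.5 mM final) after 30 min compound–GPX4 preincubation; final 200 nM GPX4, 100 nM GR, 1 mM GSH, 0.5 mM NADPH.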

[7] = qHTS assay to identify inhibitors of the type 1 interferon - major histocompatibility complex class I in skeletal muscle: Counter screen cell viability and HiBit confirmation (AID 1347412); conditions: iHSKM muscle cells + IFN-b, HiBiT or CellTiter-Glo, 24 h; note: nearly all actives have a fitted effect of over 60% in size; for activity change, negative = inhibition: % is set by controls: 0 for no effect and ±100 for the full control effect
Method in brief: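 CRISPR HLA-B*08:01-HiBit immortalized human myoblasts (C25cl48) stimulated with 4 ng/ml IFN-beta and compounds (12-point 1:3, top 46 uM final) for 24 h at 37 C. Duplicate plates read by HiBit lytic luminescence or CellTiter Glo ATP.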

[8] = qHTS of pediatric cancer cell lines to identify multiple opportunities for drug repurposing: Primary screen for SJ-GBM2 cells (AID 1347091);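 for activity change, negative = cytotoxic: plate controls were DMSO neutral control for no effect and bortezomib for full effect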
Method in brief: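 Cell viability, CellTiter-Glo luminescence; 500-1,000 cells/well, 8- or 11-point titration, 48 h compound exposure at 37 degrees C, 5% CO2. Controls: DMSO neutral, bortezomib 2.3 µM final as positive.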

[9] = qHTS of pediatric cancer cell lines to identify multiple opportunities for drug repurposing: Primary screen for SK-N-MC cells (AID 1347093); conditions: SK-N-MC viability, CellTiter-Glo luminescence, 48 h; activity change, negative = cytotoxic: at 46 µM (top of the series);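 for activity change, negative = cytotoxic: plate controls were DMSO neutral control for no effect and bortezomib for full effect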
Method in brief: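 Metabolically active cells were quantified by ATP-dependent luminescence (CellTiter-Glo, 15 min at room temperature) following 48 h treatment. Cells had been plated at 500-1,000 per well and settled for 5 h beforehand.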

[10] = qHTS of pediatric cancer cell lines to identify multiple opportunities for drug repurposing: Primary screen for NB-EBc1 cells (AID 1347095);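 for activity change, negative = cytotoxic: plate controls were DMSO neutral control for no effect and bortezomib for full effect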
Method in brief: as §1

[11] = qHTS of pediatric cancer cell lines to identify multiple opportunities for drug repurposing: Primary screen for Saos-2 cells (AID 1347097); conditions: Saos-2 viability, CellTiter-Glo ATP luminescence, 48 h; activity change, negative = cytotoxic: at 46 µM (top of the series); note: nearly all actives have a fitted effect of over 40% in size
Method in brief: as §1

[12] = qHTS of pediatric cancer cell lines to identify multiple opportunities for drug repurposing: Primary screen for SK-N-SH cells (AID 1347098); note: nearly all actives have a fitted effect of over 65% in size; for activity change, negative = cytotoxic: % is set by controls: 0 for no effect and ±100 for the full control effect
Method in brief: as §2

[13] = qHTS of pediatric cancer cell lines to identify multiple opportunities for drug repurposing: Primary screen for BT-12 cells (AID 1347101); note: nearly all actives have a fitted effect of over 25% in size
Method in brief: as §2

[14] = qHTS of pediatric cancer cell lines to identify multiple opportunities for drug repurposing: Primary screen for OHS-50 cells (AID 1347103); conditions: OHS-50 osteosarcoma viability, CellTiter-Glo luminescence, 48 h; activity change, negative = cytotoxic: at 57.3 µM (top of the series); note: nearly all actives have a fitted effect of over 40% in size
Method in brief: as §2

[15] = system: CP260; assay: qHTS profiling for inhibitors of Plasmodium falciparum proliferation (AID 504749); note: nearly all actives have a fitted effect of over 60% in size; conditions: P. falciparum in erythrocytes, SYBR Green DNA, 72 h; series mostly up to 28.7 µM
Method in brief: (§3)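 SYBR Green fluorescence of parasite DNA, read after lysis and overnight dark incubation, measured growth over 72 h in erythrocyte culture at 0.3% parasitemia and 2.5% hematocrit. Data normalised to DMSO and 0.29 uM artemisinin, with plate-drift correction.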

[16] = system: CP265; assay: as above; conditions: P. falciparum in erythrocytes, SYBR Green DNA, 72 h; series mostly up to 28.7 µM
Method in brief: as §3

[17] = system: CP286; assay: as above; conditions: P. falciparum in erythrocytes, SYBR Green DNA, 72 h; series mostly up to 28.7 µM
Method in brief: as §3

[18] = molecular target: Cytochrome P450 2C9 (Homo sapiens) (UniProt P11712); assay: Cytochrome P450 family 2 subfamily C member 9 (CYP2C9) small molecule antagonists: luciferase biochemical (cell-free) qHTS assay (AID 1645842; active = well fitted curve in the direction sought with a large enough effect in the repeat runs; inconclusive = weak or mixed curves; inactive = no such curve, though single readings can be large; an effect the other way counts as inactive or inconclusive; note: nearly all actives have a fitted effect of over 55% in size)
UniProt P11712, sequence (P11712 whole entry, looked up): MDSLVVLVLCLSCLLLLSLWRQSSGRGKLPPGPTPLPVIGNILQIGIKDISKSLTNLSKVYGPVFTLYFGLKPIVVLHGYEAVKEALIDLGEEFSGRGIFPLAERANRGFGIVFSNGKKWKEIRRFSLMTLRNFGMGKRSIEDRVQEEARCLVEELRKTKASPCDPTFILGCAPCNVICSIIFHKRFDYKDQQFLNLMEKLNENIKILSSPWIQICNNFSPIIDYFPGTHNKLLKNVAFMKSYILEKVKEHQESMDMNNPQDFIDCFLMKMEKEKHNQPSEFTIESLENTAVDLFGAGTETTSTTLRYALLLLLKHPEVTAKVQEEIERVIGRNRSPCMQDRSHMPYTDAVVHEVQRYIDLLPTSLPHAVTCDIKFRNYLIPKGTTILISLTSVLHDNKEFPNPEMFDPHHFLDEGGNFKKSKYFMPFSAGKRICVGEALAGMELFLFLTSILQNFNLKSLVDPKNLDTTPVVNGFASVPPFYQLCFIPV
Method in brief: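 P450-Glo CYP2C9 system: proluciferin substrate with enzyme in mix containing 0.4% BSA, 10 min at room temperature, then NADPH regeneration solution added and incubated 1 h at 37C. Detection reagent stopped reaction; luminescence read after 20 min as RLU.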

[19] = molecular target: Cytochrome P450 2D6 (Homo sapiens) (UniProt P10635); assay: Cytochrome P450 family 2 subfamily D member 6 (CYP2D6) small molecule antagonists: luciferase biochemical (cell-free) qHTS assay (AID 1645840; active = well fitted curve in the direction sought with a large enough effect in the repeat runs; inconclusive = weak or mixed curves; inactive = no such curve, though single readings can be large; an effect the other way counts as inactive or inconclusive; note: nearly all actives have a fitted effect of over 55% in size)
UniProt P10635, sequence (P10635 whole entry, looked up): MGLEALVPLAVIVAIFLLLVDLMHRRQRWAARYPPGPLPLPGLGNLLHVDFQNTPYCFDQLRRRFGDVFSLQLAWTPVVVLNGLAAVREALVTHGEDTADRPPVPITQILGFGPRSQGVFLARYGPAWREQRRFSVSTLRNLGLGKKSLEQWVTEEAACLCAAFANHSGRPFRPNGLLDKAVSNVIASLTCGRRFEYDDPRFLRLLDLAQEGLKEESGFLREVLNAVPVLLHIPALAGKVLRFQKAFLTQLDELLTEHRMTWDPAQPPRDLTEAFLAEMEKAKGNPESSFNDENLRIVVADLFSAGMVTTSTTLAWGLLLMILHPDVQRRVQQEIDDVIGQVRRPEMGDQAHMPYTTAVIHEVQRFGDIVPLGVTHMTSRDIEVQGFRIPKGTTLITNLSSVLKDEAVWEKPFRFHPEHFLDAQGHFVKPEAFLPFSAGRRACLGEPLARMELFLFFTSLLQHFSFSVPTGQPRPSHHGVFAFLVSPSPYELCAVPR
Method in brief: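 P450-Glo CYP2D6 system: proluciferin substrate converted by enzyme to luciferin, read by luminescence proportional to activity. Enzyme-substrate mix with compound 10 min at room temperature, then NADPH regeneration 1 h before detection reagent.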

[20] = Drug repurposing screens with cells derived from glioblastoma tumor samples (AID 1345199); conditions: GBM patient neurospheres viability, ATP luminescence, 48 h; Potency: tumour line A unless noted; activity, negative = cell killing: at 46 µM (top of the series), tumour line A unless noted; note: nearly all actives have a fitted effect of over 40% in size
Method in brief: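 Primary testing used CD133+ neurospheres from four GBM patients, seven concentrations, 48 h exposure and ATP-based viability; confirmation added three slower-growing patient lines.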
Potency is the fitted concentration of half-maximal effect; tags give direction and shape of the fitted curve.

**Q.** Which Potency [1] does the source give for `CC[C@H]1CN2CCc3cc(OC)c(OC)cc3[C@@H]2C[C@@H]1C[C@H]1NCCc2cc(OC)c(OC)cc21` here?
**A.** inconclusive: 84.1 nM [cytotoxic, full curve, poor fit]

**Q.** And the Potency [2]?
**A.** active: 335 nM

**Q.** What about the Potency [3] of the same compound?
**A.** inactive

**Q.** And the Potency [4]?
**A.** active: 3.76 µM

**Q.** What about the Potency [5] of the same compound?
**A.** inconclusive: 0.891 µM [inhibitor, full curve, poor fit]

**Q.** And the Potency [6]?
**A.** inconclusive: 22.4 µM [inhibitor, partial curve, poor fit]

**Q.** What about the activity change, negative = inhibition ([7]; Viability, at 45.9 µM (top of the series)) of the same compound?
**A.** inactive: -15.7%

**Q.** Which results are given for `Fc1ccc(C(c2ccc(F)cc2)N2CCN(C/C=C/c3ccccc3)CC2)cc1`?
**A.** Potency [8]: inconclusive: 21.1 µM [cytotoxic, single point]; Potency [1]: inconclusive: 33500 nM [cytotoxic, single point]; Potency [9]: inconclusive: 33.5 µM [cytotoxic, single point]; Potency [10]: inconclusive: 26.6 µM [cytotoxic, single point]; Potency [11]: inconclusive: 33.5 µM [cytotoxic, single point]; Potency [12]: inconclusive: 15.4 µM [cytotoxic, partial curve]; Potency [13]: inconclusive: 34.7 µM [cytotoxic, single point]; Potency [14]: active: 17.4 µM; Potency [2]: inconclusive: 26600 nM [cytotoxic, single point]; Potency [5]: active: 12.6 µM; Potency [15]: inconclusive: 17.8 µM [inhibitor, single point]; Potency [16]: inconclusive: 17.8 µM [inhibitor, single point]; Potency [17]: inconclusive: 17.8 µM [inhibitor, single point]

**Q.** Which Potency ([7]; Viability) does the source give for `CC1=C(CO)C(=O)O[C@@H]([C@@H](C)[C@H]2CC[C@H]3[C@@H]4C[C@H]5O[C@]56[C@@H](O)C=CC(=O)[C@]6(C)[C@H]4CC[C@]23C)C1` here?
**A.** inconclusive: 12.5 µM [cytotoxic, partial curve, poor fit]

**Q.** What does the source list for `Nc1ccn(C[C@@H](CO)OCP(=O)(O)O)c(=O)n1`?
**A.** Potency [8]: inactive; Potency [3]: inconclusive: 2.29 µM [cytotoxic, partial curve]

**Q.** With `COC(=O)/C=C(/C)N` as the compound, how does the Potency [12] read?
**A.** inactive

**Q.** What about the Potency [18] of the same compound?
**A.** inconclusive: 23.9 µM [inhibitor, partial curve, poor fit]

**Q.** With `COc1cc(N2CCC(N(C)C)CC2)ccc1Nc1ncc(Cl)c(Nc2ccccc2P(C)(C)=O)n1` as the compound, how does the Potency [18] read?
**A.** inconclusive: 8.49 µM [inhibitor, single point]

**Q.** What about the Potency ([7]; Viability) of the same compound?
**A.** inconclusive: 3.13 µM [cytotoxic, full curve]

**Q.** For `Cc1ccccc1C#Cc1ccc(CCC(=O)O)cc1`, which Potency [19] is on record?
**A.** inconclusive: 26.8 µM [inhibitor, single point]

**Q.** And the Potency [18]?
**A.** inconclusive: 21.3 µM [inhibitor, single point]

**Q.** With `CC(C)(C)C(=O)OCOP(=O)(COCCn1cnc2c(N)ncnc21)OCOC(=O)C(C)(C)C` as the compound, how does the Potency [8] read?
**A.** inconclusive: 2.37 µM [cytotoxic, full curve] and inconclusive: 296 nM [cytotoxic, full curve]

**Q.** And the Potency [1]?
**A.** active: 2.11 µM and active: 743 nM

**Q.** And the Potency [10]?
**A.** active: 2.99 µM and active: 662 nM

**Q.** What about the Potency [12] of the same compound?
**A.** active: 15.4 µM and active: 27.1 µM

**Q.** And the Potency [13]?
**A.** active: 11 µM and active: 17.2 µM

**Q.** And the Potency [2]?
**A.** inconclusive: 15 µM [cytotoxic, partial curve] and active: 23.5 µM

**Q.** And the Potency [4]?
**A.** inconclusive: 10.6 µM [cytotoxic, partial curve, poor fit] and inconclusive: 14.8 µM [cytotoxic, partial curve]

**Q.** And the Potency [5]?
**A.** inactive

**Q.** And the Potency [15]?
**A.** inconclusive: 17.8 µM [inhibitor, single point]

**Q.** What about the Potency [16] of the same compound?
**A.** inconclusive: 17.8 µM [inhibitor, single point]

**Q.** And the Potency [17]?
**A.** inconclusive: 17.8 µM [inhibitor, single point]

**Q.** Which results are given for `NC[C@@](O)(c1ccc(Cl)cc1)c1ccc(-c2cn[nH]c2)cc1`?
**A.** Potency [19]: inconclusive: 0.952 µM [inhibitor, full curve]; Potency ([7]; HiBiT): active: 6.25 µM; Potency ([7]; Viability): active: 8.83 µM

**Q.** Which Potency [9] does the source give for `CCCCc1nc(Cl)c(CO)n1Cc1ccc(-c2ccccc2-c2nn[nH]n2)cc1` here?
**A.** inconclusive: 8.41 µM [cytotoxic, partial curve]

**Q.** And the Potency [6]?
**A.** inactive

**Q.** What about the Potency [20] of the same compound?
**A.** inconclusive: 8.91 µM [inhibitor, full curve]

**Q.** What about the Potency [15] of the same compound?
**A.** inconclusive: 11.2 µM [inhibitor, partial curve]

**Q.** What about the Potency [16] of the same compound?
**A.** inconclusive: 10 µM [inhibitor, partial curve, poor fit]

**Q.** And the Potency [17]?
**A.** inconclusive: 11.2 µM [inhibitor, single point]

**Q.** For `CO[C@@H](Cc1ccc(OCCc2nc(-c3ccccc3)oc2C)c2ccsc12)C(=O)O`, which Potency [19] is on record?
**A.** inactive

**Q.** Which results are given for `O=S(=O)(O)c1cc(I)c(O)c2ncccc12`?
**A.** Potency [9]: inactive; Potency [10]: inactive; Potency [11]: inactive; Potency [19]: inactive; Potency [18]: inactive; Potency [15]: inconclusive: 17.8 µM [inhibitor, single point]

**Q.** Which Potency [2] does the source give for `CC(=O)NCc1c(I)c(NC(C)=O)c(I)c(C(=O)O)c1I` here?
**A.** inactive

**Q.** And the Potency [19]?
**A.** inconclusive: 43.6 µM [inhibitor, partial curve, poor fit]

Reference: PubChem BioAssay (NCATS)
